From PubChem BioAssay AID881 (National Center for Advancing Translational Sciences (NCATS), 2007)
The campaign covered roughly 110,000 compounds. About 610 (0.55%) were called active. Inconclusive means that the source gave no clear call. Such entries were picked first, then a sample of the others. The call rests on the fitted dose curve; in most records, active means well fitted inhibition curve with a large enough effect; inconclusive means small, poorly fitted or top-dose-only effect; inactive means no such curve, though single readings can be large or run the other way. Potencies beside an inconclusive call are fits to weak or partial responses and may not hold up.

These compounds were tested against Polyunsaturated fatty acid lipoxygenase ALOX15B (Homo sapiens) (UniProt O15296) (assay: qHTS Assay for Inhibitors of 15-hLO-2 (15-human lipoxygenase 2)). Conditions: purified 15hLO-2, xylenol orange hydroperoxide absorbance; activity change, negative = inhibition: at 57.1 µM (top of the series) unless noted.
UniProt O15296, sequence (O15296 whole entry, looked up): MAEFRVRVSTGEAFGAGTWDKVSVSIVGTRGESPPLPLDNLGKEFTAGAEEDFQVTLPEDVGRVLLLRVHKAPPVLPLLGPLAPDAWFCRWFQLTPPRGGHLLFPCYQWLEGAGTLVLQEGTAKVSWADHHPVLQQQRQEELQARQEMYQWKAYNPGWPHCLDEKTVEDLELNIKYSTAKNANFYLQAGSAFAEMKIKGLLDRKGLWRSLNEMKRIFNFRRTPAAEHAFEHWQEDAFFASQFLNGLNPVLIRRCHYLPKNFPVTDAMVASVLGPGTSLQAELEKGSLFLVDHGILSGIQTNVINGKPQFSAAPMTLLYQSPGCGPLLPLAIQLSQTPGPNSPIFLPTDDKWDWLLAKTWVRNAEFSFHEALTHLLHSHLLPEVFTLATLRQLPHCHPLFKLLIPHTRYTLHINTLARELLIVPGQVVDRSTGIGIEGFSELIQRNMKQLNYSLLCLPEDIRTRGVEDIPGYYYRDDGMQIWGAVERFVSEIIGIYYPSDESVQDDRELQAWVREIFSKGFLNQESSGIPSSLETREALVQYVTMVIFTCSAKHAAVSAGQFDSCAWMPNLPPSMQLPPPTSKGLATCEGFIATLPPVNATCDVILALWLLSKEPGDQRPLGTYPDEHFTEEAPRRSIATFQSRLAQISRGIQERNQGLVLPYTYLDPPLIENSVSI
Method in brief: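 Purified human 15hLO-2 (50 nM) preincubated 15 min with compound, then 45 uM arachidonic acid for 90 min at RT in 25 mM Hepes pH 7.5, 0.01% Triton X-100. Hydroperoxide detected by Fe-xylenol orange; 573/405 nm absorbance ratio.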
Further: nearly all actives have a fitted effect of over 60% in size.
On the % scale 0 is the no-effect control and ±100 the full control effect; potency means the concentration at half of the fitted maximal effect; tags describe the fitted curve by direction and shape.

Row | SMILES | Potency | activity change, negative = inhibition
1 | Cc1ccc(NC(=O)CN2C(=O)S/C(=C\c3cccn3-c3cccc(C(=O)O)c3)C2=O)c(C)c1 | inconclusive: 39.8 µM [inhibitor, single point] | –
2 | CCCn1nc(NC(=O)CC(C)C)c2cc3ccccc3nc21 | inconclusive: 39.8 µM [inhibitor, single point] | –
3 | COc1cc(C(=O)N2CCN=C2c2ccccc2)cc(OC)c1OC | inactive | –
4 | O=C1C(SCCO)=C(SCCO)C(=O)c2ccccc21 | inconclusive: 2 µM [inhibitor, full curve, poor fit] | –
5 | CC[n+]1c(/C=C/C=C/N(C(C)=O)c2ccccc2)sc2ccccc21 | inconclusive: 10 µM [inhibitor, partial curve] | –
6 | COc1cc(/C=C/C(=O)CC(=O)/C=C/c2ccc(O)c(OC)c2)ccc1O | inconclusive: 7.94 µM [inhibitor, partial curve] | –
7 | CCOC(=O)c1c(NC(=O)CSc2nnc(-c3ccccc3)n2CC)sc(C(C)=O)c1C | inactive | –
8 | Cc1cccc(CS(=O)(=O)c2nnc([C@H](Cc3ccccc3)NC(=O)OC(C)(C)C)o2)c1 | inconclusive: 15.8 µM [inhibitor, partial curve] | –
9 | CC1CCN(C(=O)CSc2nnc(-c3cc4ccccc4cc3O)n2Cc2ccco2)CC1 | inconclusive: 25.1 µM [inhibitor, single point] | –
10 | CCOc1ccc(C2C(C#N)=C(N)SC(N)=C2C#N)c(OCC)c1 | – | inactive: -20.8% [at 11.4 µM]
11 | C=CC1=C(C)C2=NC1=CC1=NC(=CC3=NC(=CC4=NC(=C2)C(C)=C4CCC(=O)O)C(CCC(=O)O)=C3C)C(C=C)=C1C.[Zn] | active: 12.6 µM | –
12 | O=C(CCl)c1ccc(Cc2ncc(C(F)(F)F)cc2Cl)s1 | inconclusive: 12.6 µM [inhibitor, partial curve] | –
13 | CN(C)c1ccc(/C=C2/C(=O)N(c3ccc([N+](=O)[O-])cc3)N=C2N2CCOCC2)cc1 | inconclusive: 31.6 µM [inhibitor, single point] | –
14 | CCOc1ccc(N2C(=O)CS/C2=C(\C(Cl)=C(Cl)Cl)[N+](=O)[O-])cc1 | inconclusive: 31.6 µM [inhibitor, single point] | –
15 | O=C(Oc1c(Br)cc(C(=S)N2CCOCC2)cc1Br)c1ccc(Cl)cc1 | inconclusive: 25.1 µM [inhibitor, single point] | –
16 | CCOC(=O)c1cc2c(C(F)(F)F)cc(-c3cccnc3)nc2o1 | inactive | –
17 | CCOC(=O)C1=C(O)/C(=C\c2ccc(OC)c(OC)c2)N=C1C | inconclusive: 0.199 µM [inhibitor, full curve, poor fit] | –
18 | CC1(C)CCC2=C(O1)c1ccccc1C(=O)C2=O | inconclusive: 39.8 µM [inhibitor, single point] | –
19 | CCCOc1ccc2ccccc2c1/C=N/n1c(C)nnc1-n1nc(C)cc1C | inactive | –
20 | CC(=O)c1c(N2CCN(C)CC2)[nH]c(-c2ccccc2)nc1=S | inconclusive: 1 µM [inhibitor, full curve, poor fit] | –
21 | S=C(c1ccc(-c2ccc(Cl)cc2)o1)N1CCCCC1 | inconclusive: 25.1 µM [inhibitor, partial curve] | –
22 | Cc1ccccc1C1CC(=O)Oc2ccc(O)cc21 (stereo unspecified) | inconclusive: 20 µM [inhibitor, partial curve] | –

Row | SMILES | Potency | activity change, negative = inhibition
23 | O=C(/C=C/N1CCOCC1)c1ccc(-c2ccccc2)cc1 | inconclusive: 31.6 µM [inhibitor, single point] | –
24 | CCn1c(SCC(=O)Nc2cccc(C)n2)nnc1-c1ccco1 | inactive | –
25 | Cc1ccc(O)c(-c2cc(C(F)(F)C(F)F)[nH]n2)c1 | inactive | –
26 | COc1ccc2[nH]cc(CCNc3cc(-c4cccnc4)ncn3)c2c1 | inconclusive: 31.6 µM [inhibitor, single point] | –
27 | C[C@@H](O)CNC(C)(C)CC(=O)N[C@@H]1CCc2ccccc2N(Cc2ccc(-c3ccccc3-c3nn[nH]n3)cc2)C1=O | – | inactive: -10.9% [at 0.0915 µM]
28 | COC(=O)c1ccc2c(=O)[nH]c(CN3c4ccccc4CC3C)nc2c1 (stereo unspecified) | inconclusive: 10 µM [inhibitor, partial curve] | –
29 | Cc1nn(-c2ccccc2)c2c1C1(C(=O)N3c4c(cccc41)C(C)CC3(C)C)C(C#N)=C(N)O2 (stereo unspecified) | inconclusive: 3.16 µM [inhibitor, full curve] | –
30 | Cc1cc(Cl)ccc1OCc1n[nH]c(=S)n1C1CCCCC1 | inconclusive: 15.8 µM [inhibitor, single point] | –
31 | COC(=O)C1=C(C)N(C)C(=O)/C1=C\c1ccco1 | inconclusive: 15.8 µM [inhibitor, partial curve] | –
32 | COc1ccc2cc3cc(C(=O)Nc4ccc5c(c4)OCO5)oc3nc2c1 | inconclusive: 0.316 µM [inhibitor, full curve, poor fit] | –
33 | COC(=O)c1ccc(C(/C=C/[C@@H](C)C(=O)N[C@H](C)CO)NC(=O)OCc2ccccc2)cc1 (stereo partly specified) | inactive | –
34 | CC1(c2ccc(Cl)c(Cl)c2)NC(=S)N2C1NC(=S)N2c1ccccc1 (stereo unspecified) | inconclusive: 12.6 µM [inhibitor, partial curve] | –
35 | O=C(/C=C/c1ccccc1)NC(=S)Nc1ccc(N2CCOCC2)cc1 | inconclusive: 6.31 µM [inhibitor, partial curve] | –
36 | CCSc1nc(-c2ccco2)ccc1C#N | inconclusive: 15.8 µM [inhibitor, partial curve] | –
37 | CCCc1cc(=O)n2[nH]c(-c3ccc(OC)cc3)nc2n1 | inactive | –
38 | COc1cc(C2c3sc(=O)[nH]c3SC3C4CCC(C4)C23)ccc1O (stereo unspecified) | inconclusive: 20 µM [inhibitor, single point] | –
39 | CCCc1cc(-c2n[nH]c(=S)n2C(C)c2ccccc2)cs1 (stereo unspecified) | inconclusive: 15.8 µM [inhibitor, partial curve] | –
40 | COc1ccc(N(C(=O)C(C)C)S(=O)(=O)c2ccc(Cl)cc2)cc1 | inactive | –
41 | Cc1ccc2c(c1)C1CCCC3C1N2CC(=O)N3Cc1ccccc1 (stereo unspecified) | inconclusive: 12.6 µM [inhibitor, partial curve] | –
42 | CCCc1cc(N2CCCC(C(=O)Nc3ccc(OC)cc3OC)C2)n2ncnc2n1 (stereo unspecified) | inactive | –
43 | c1ccc(-c2nnc(CSc3nc4ccccc4[nH]3)o2)cc1 | inactive | –
44 | CC1CSc2nc3sc4c(c3c(=O)n21)CCCC4 (stereo unspecified) | inconclusive: 20 µM [inhibitor, single point] | –

Row | SMILES | Potency | activity change, negative = inhibition
45 | CCc1c(C)nc(N)n2c(SCC(=O)Nc3ccccc3)nnc12 | inconclusive: 0.316 µM [inhibitor, full curve, poor fit] | –
46 | CC1(C)CC(=O)C(C=Nc2ccc3c(c2)OCO3)=C(O)C1 | inactive | –
47 | O=C(NC(=S)Nc1ccc(S(=O)(=O)N2CCCCC2)cc1)c1ccccc1 | inconclusive: 12.6 µM [inhibitor, partial curve] | –
48 | O=C(c1ccc2c(c1)OCO2)n1nnc2ccccc21 | inconclusive: 15.8 µM [inhibitor, partial curve, poor fit] | –
49 | CCCCCCCCCCCCCCSCC(=O)O | inconclusive: 31.6 µM [inhibitor, single point] | –
50 | O=C(Nc1cccc(C(F)(F)F)c1)c1ccc2nc(-c3ccco3)c(-c3ccco3)nc2c1 | inconclusive: 7.94 µM [inhibitor, partial curve] | –
51 | O=S(=O)(NCCc1csc(-c2cccnc2)n1)c1ccc(Cl)s1 | inactive | –
52 | CCOC(=O)c1ccc(N2C(=O)CC(Sc3nnc(C)s3)C2=O)cc1 (stereo unspecified) | inconclusive: 12.6 µM [inhibitor, partial curve] | –
53 | C=CCn1c(=O)c2c3c(sc2n2c(Nc4ccc(OC)cc4)nnc12)CCCC3 | inconclusive: 15.8 µM [inhibitor, partial curve] | –
54 | Cn1c(CSc2nc3ccccc3s2)nnc1SCC(=O)NCCN1CCOCC1 | inconclusive: 3.16 µM [inhibitor, single point] | –
55 | C=CCn1c(-c2ccc(Cl)cc2)c[nH]c1=S | inconclusive: 10 µM [inhibitor, partial curve] | –
56 | N#C/C(=N\Nc1ccc(Cl)cc1)C(=O)c1ccccc1 | inconclusive: 15.8 µM [inhibitor, partial curve] | –
57 | O=c1cc(O)nc(SC23CC4CC(CC(C4)C2)C3)[nH]1 | inconclusive: 25.1 µM [inhibitor, single point] | –
58 | COc1ccc(OC)c(C2CC(=O)N3CN(c4ccccc4)CSC3=C2C#N)c1 (stereo unspecified) | active: 10 µM | –
59 | C=CCNC(=S)Nc1sc2c(c1C(=O)OCC)CCN(C(=O)OCC)C2 | inconclusive: 31.6 µM [inhibitor, single point] | –
60 | CN1c2ccccc2C(C)(C)[C@]12C=Cc1cc(O)ccc1O2 | inconclusive: 15.8 µM [inhibitor, partial curve] | –
61 | CN1CCN(S(=O)(=O)c2ccc(NC(=S)NC(=O)c3ccc(Cl)cc3)cc2)CC1 | inconclusive: 15.8 µM [inhibitor, partial curve] | –
62 | O=Nc1c(O)n(Cc2ccc(Cl)cc2Cl)c2ccccc12 | inconclusive: 31.6 µM [inhibitor, single point] | –
63 | O=C1CC(N(O)c2ccccc2)C(=O)N1c1cc(Cl)cc(Cl)c1 (stereo unspecified) | inconclusive: 15.8 µM [inhibitor, partial curve, poor fit] | –
64 | Oc1ccc(/C=N/Nc2cccc3cccnc23)c(O)c1 | inconclusive: 7.94 µM [inhibitor, full curve] | –
65 | COc1ccc(C(=O)Nn2cc3c(c2-c2ccccc2)c(=O)n(C)c(=O)n3C)cc1 | inactive | –
66 | CCOC(=O)C1=C(C)N=c2s/c(=C/c3ccco3)c(=O)n2C1c1cccc(OC)c1 (stereo unspecified) | inconclusive: 31.6 µM [inhibitor, single point] | –
